In PubChem BioAssay AID360 (National Center for Advancing Translational Sciences (NCATS), 2006):
Out of some 48,000 compounds screened, about 550 (1.1%) were called active. Roughly 4% stayed inconclusive and do not appear here. Cut-off read from the data, not from the text of the source: active = potency below about 15 µM; inconclusive = mostly about 16 µM to 33 µM; inactive = weaker than that. The list shows a part of the results.

molecular target: Lysosomal acid glucosylceramidase (Homo sapiens) (UniProt P04062); assay: Glucocerebrosidase; conditions: purified enzyme, resorufin glucoside fluorescence (screen aimed at inhibitors), 20 min;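 note: the screen sought inhibitors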
Outline: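 Wild-type enzyme at 0.2 nM final in 50mM citric acid/KH2PO4, 10mM sodium taurocholate, 0.01% tween-20, pH 5.9, with resorufin beta-D-glucopyranoside at 30 uM final. Compounds titrated, 20 min at RT, red fluorescence read; AC50 from titration.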
Potency is the fitted concentration of half-maximal effect.

UniProt P04062, sequence (P04062 whole entry, looked up): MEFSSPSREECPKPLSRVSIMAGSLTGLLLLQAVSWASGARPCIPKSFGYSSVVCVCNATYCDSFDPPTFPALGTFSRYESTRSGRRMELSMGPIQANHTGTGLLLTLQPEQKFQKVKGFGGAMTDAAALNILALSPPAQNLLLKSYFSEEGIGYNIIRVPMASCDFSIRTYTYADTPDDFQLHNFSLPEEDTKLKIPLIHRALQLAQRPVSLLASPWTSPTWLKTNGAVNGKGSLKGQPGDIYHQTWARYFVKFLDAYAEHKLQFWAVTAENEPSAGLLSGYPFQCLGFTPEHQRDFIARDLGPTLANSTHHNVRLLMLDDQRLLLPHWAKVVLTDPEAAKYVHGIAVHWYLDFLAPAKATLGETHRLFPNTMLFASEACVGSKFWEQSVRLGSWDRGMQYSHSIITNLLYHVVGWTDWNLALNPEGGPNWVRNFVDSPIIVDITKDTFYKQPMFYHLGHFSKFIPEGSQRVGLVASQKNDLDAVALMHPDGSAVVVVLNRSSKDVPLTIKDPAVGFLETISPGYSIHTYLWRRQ

Potency, inactive:
Cc1nn(-c2nnc(C)c(=O)[nH]2)c(C)c1SCC(=O)Nc1ccc(C(C)C)cc1 > 76.9 µM, C=C(C)C(C)(C#CCN1CCCC1)OC(C)=O (stereo not given) > 76.9 µM, CCOc1ccccc1-n1c(SCC(=O)NC)nnc1-c1ccco1 > 76.9 µM, N#Cc1nc(-c2ccccc2F)oc1N1CCCC1 > 76.9 µM, CCOc1ccc(C(=O)NC2CCN(S(C)(=O)=O)CC2)cc1 > 76.9 µM, CCC(=O)Nc1ccc(NC(=O)C23CC4CC(CC(C4)C2)C3)cn1 > 76.9 µM, O=C(NCCc1ccccc1)c1nc2c(nnn2Cc2ccccc2Cl)c(=O)[nH]1 > 76.9 µM, CCOC(=O)Cc1csc(NC(=O)CSc2nnc(-c3ccncc3)n2Cc2ccco2)n1 > 76.9 µM, CCOc1ccc(CN2CCN(c3cc(C)nc4c5c(C)cc(C)nc5nn34)CC2)cc1 > 76.9 µM, COc1ccc(-c2ccc(-c3nnc(Cc4ccc(OC)c(OC)c4)o3)cc2)cc1 > 76.9 µM, Cn1c(CCN2CCCCC2)nc2cc(NC(=O)C3CCCCC3)ccc21, CCOC(=O)C(CC)n1cnc2c(cnn2-c2ccc(Cl)cc2)c1=O (stereo not given) > 76.9 µM, CCCCn1c(=NC(=O)c2ccc3c(c2)OCO3)c(C#N)cc2c(=O)n3cccc(C)c3nc21 > 76.9 µM, CCN(CC)S(=O)(=O)c1ccc2[nH]cc(C(=O)NCCc3ccc(OC)c(OC)c3)c(=O)c2c1 > 76.9 µM, CCOc1ccc2[nH]c(=O)c(C(c3nnnn3Cc3ccco3)N3CCCC(C)C3)cc2c1 (stereo not given), CCn1c(SCC(=O)O)nnc1C1CCCCC1 > 76.9 µM, O=C(Cn1nnc(-c2ccccc2)n1)NCc1cccs1 > 76.9 µM, O=C(CCn1c(=S)[nH]c2ccccc2c1=O)N1CCN(c2ccccn2)CC1 > 76.9 µM, Cn1ccnc1C(O)c1ccco1 (stereo not given) > 76.9 µM, CC(C)(C)n1nc2c(c1NC(=O)c1cccs1)CS(=O)C2 (stereo not given) > 76.9 µM, COc1ccc(OC)c(NC(=O)CC(Cc2ccccc2OC)C(=O)O)c1 (stereo not given) > 76.9 µM, COc1ccccc1-c1nnc(NC(=O)c2ccc(S(=O)(=O)N(C)C)cc2)o1 > 76.9 µM, CCOc1ccc(C2=CS/C(=C(\C#N)c3nnc4n3CCCCC4)N2CC)cc1 > 76.9 µM, CCn1ccc(=N)cc1 > 76.9 µM, Nc1cc(OC(=O)c2cccs2)nn1S(=O)(=O)c1ccccc1 > 76.9 µM, Cc1cc(=O)oc2cc(NC(=O)C3COc4ccccc4O3)ccc12 (stereo not given) > 76.9 µM, Cc1nnc(SCCn2c(N3CC(C)CC(C)C3)nc3c2c(=O)n(C)c(=O)n3C)s1 (stereo not given) > 76.9 µM, CCN(CC)C(=O)CSc1nnc([C@@H](NC(=O)OC(C)(C)C)C(C)C)o1 > 76.9 µM, CC(C)(C)C(=O)COC(=O)c1ccc(O)cc1 > 76.9 µM, COC(=O)c1cn(C)c2ccc(S(=O)(=O)N3CCCCC3)cc2c1=O > 76.9 µM, COCCNC(=O)c1ccc(C(=O)NCCOC)s1 > 76.9 µM, CCn1c(NCc2c[nH]c3ccccc23)nc2ccccc21 > 76.9 µM, CCOC(=O)C1CCN(Cc2nc3ccccc3c(=O)n2-c2ccc(OCC)cc2)CC1 > 76.9 µM, Cc1ccc(C2C(C#N)=C(N)Oc3n[nH]c(C)c32)cc1 (stereo not given) > 76.9 µM, O=C(CSc1nnc(-c2ccco2)n1CC1CCCO1)c1ccccc1 (stereo not given) > 76.9 µM, CCS(=O)(=O)CCSc1nc(C)cc(C)n1 > 76.9 µM, CCc1c(C(=O)NC2CCCCC2)[nH]c(C)c1C(C)=O > 76.9 µM, O=C1C=C(NCCN2CCOCC2)CC(c2ccccc2)C1 (stereo not given) > 76.9 µM, COc1cccc(-n2c(SCC(N)=O)nc3c([nH]c4ccccc43)c2=O)c1 > 76.9 µM, Cn1cnnc1SCc1ccc(C(=O)n2ncc(C#N)c2N)cc1 > 76.9 µM, COc1ccccc1-c1cc(C(=O)Nc2c(F)cc(F)cc2Br)no1 > 76.9 µM, O=C(NCN1CCN(c2ccccc2F)CC1)c1ccccc1 > 76.9 µM, CCCCOCCCNC(=O)c1c(-c2ccccc2)noc1C > 76.9 µM, CCOc1ccccc1-n1c(SCC(=O)N(C(C)C)C(C)C)nnc1-c1cccnc1 > 76.9 µM, CCN(CC)CCCNC(=O)c1nn(-c2ccccc2OC)c(=O)c2ccccc12 > 76.9 µM, Cc1cc2c3c(c1)C1(C(=O)N3C(C)(C)CC2C)C(C#N)=C(N)Oc2n[nH]c(C)c21 (stereo not given) > 76.9 µM, Cc1cc(Cl)ccc1OCCCC(N)=O > 76.9 µM, CCOC(=O)c1cnn(-c2nc(CC)nc3sc4c(c23)CCC4)c1N > 76.9 µM, CCCCn1c(SCC(=O)NCCc2ccc(OC)c(OC)c2)nc2c1c(=O)n(C)c(=O)n2C > 76.9 µM, CC(=O)NC(Cc1ccccc1C)C(=O)NC1CCN(c2c3c(nc4ncnn24)CCC3)CC1 (stereo not given) > 76.9 µM, COCCN(CC(=O)Nc1ccccc1)S(=O)(=O)c1ccc(S(=O)(=O)N2CCCC2)cc1 > 76.9 µM, COc1ccccc1C(=O)NCCC(=O)N1CC(=O)Nc2ccccc21 > 76.9 µM, COC(=O)c1[nH]cnc1C(=O)c1ccccc1 > 76.9 µM, COc1ccc(C2NC(=O)CS2)cc1OC (stereo not given) > 76.9 µM, O=C(COC(=O)c1ccccc1NC(=O)c1ccco1)Nc1ccc2c(c1)OCO2 > 76.9 µM, Cc1cc2nc(-c3cccnc3SCC(=O)NCc3ccco3)[nH]c2cc1C > 76.9 µM, Cc1cc2c(cc1C)NC(c1ccccn1)C1=C(CC(C)(C)CC1=O)N2 (stereo not given) > 76.9 µM, Cc1sc(NC(=O)CN2CCN(c3ccccn3)CC2)c(C#N)c1C > 76.9 µM, O=C(O)C1CCC(CNCc2cccnc2)CC1 (stereo not given) > 76.9 µM, CCn1c(SCC(=O)c2ccccc2)nnc1-c1cc2cc(Br)ccc2o1 > 76.9 µM, COc1ccc2oc(=O)c(C(=O)N3CCN(c4ccccc4)CC3)cc2c1 > 76.9 µM, CCOc1cc(C2NC(=O)NC(O)(C(F)(F)F)C2C(=O)c2ccc(OC)cc2)ccc1O (stereo not given) > 76.9 µM, O=C(OC(C(=O)NCc1ccc2c(c1)OCO2)c1ccccc1F)c1ccco1 (stereo not given) > 76.9 µM, CCCn1c(SCC(=O)c2cc(OC)ccc2OC)nc2c1c(=O)n(C)c(=O)n2C > 76.9 µM, Cc1cc(Cl)ccc1OCC(=O)Nc1ccccc1N1CCOCC1 > 76.9 µM, CCCCC(NC(C)=O)c1nc2ccccc2n1CCCC (stereo not given) > 76.9 µM, Cc1ccc(-c2nnn(CCC(=O)Nc3ccc4c(c3)OCO4)n2)cc1 > 76.9 µM, COc1ccc(S(=O)(=O)N2CCN(Cc3ccc(Cl)cc3)CC2)cc1 > 76.9 µM, Cc1ccc(CN(C(=O)Cn2nnc3ccccc32)C(C(=O)NCc2ccco2)c2cccs2)cc1 (stereo not given) > 76.9 µM, CSc1nc2cc(F)c(F)cc2n1C > 76.9 µM, COc1cc(OC)c(C2CC(=O)N3CN(c4ccccc4C)CSC3=C2C#N)cc1OC (stereo not given) > 76.9 µM, O=C(CCNS(=O)(=O)c1cccc2nsnc12)NC1CCN(Cc2ccccc2)CC1 > 76.9 µM, c1coc(Cn2c(SCc3nc4ccccc4[nH]3)nnc2-c2cnccn2)c1 > 76.9 µM, O=C(COC(=O)c1cn(-c2ccccc2)nc1-c1cccs1)NC1CC1 > 76.9 µM, COc1ccc(NC(=O)CSc2nnc(CNC(=O)c3ccco3)n2-c2ccccc2OC)cc1 > 76.9 µM, Cc1cc(Cl)c(S(=O)(=O)Nc2ccc3c(c2)OCO3)cc1OCC(N)=O > 76.9 µM, C=CCNc1nc(NCCN2CCOCC2)nc(N2CCOCC2)n1 > 76.9 µM, NC(=O)c1nn(-c2ccccc2)nc1NC(=O)CN1CCCCC1 > 76.9 µM, Cc1ccsc1C1NC(=O)c2ccccc2N1 (stereo not given) > 76.9 µM, COc1ccc(NC(=O)Cn2cnc3c(cnn3-c3ccc(C)c(C)c3)c2=O)c(OC)c1 > 76.9 µM, Cn1c(SCC(=O)c2ccc(F)cc2)nnc1-c1cnccn1 > 76.9 µM, O=S(=O)(c1cccc(-c2cn3cccnc3n2)c1)N1CCOCC1 > 76.9 µM, CCOc1ccc(-c2nc(N)ncc2-c2ccccc2)c(O)c1 > 76.9 µM, Cc1cccc(OCCNc2nc3c(c(=O)n(C)c(=O)n3C)n2C)c1 > 76.9 µM, COc1ccccc1C(=O)n1nc(-c2ccco2)nc1N > 76.9 µM, CN(Cc1c(F)cccc1Cl)c1ccc(S(=O)(=O)N2CCOCC2)cn1 > 76.9 µM, O=S(=O)(c1ccccc1)N1CCSC1c1ccco1 (stereo not given), Cn1nc(C(=O)Nc2cccnc2)c2ccccc2c1=O > 76.9 µM, COc1ccc(N2CCN(C(=O)CCN3C(=O)c4ccccc4S3(=O)=O)CC2)cc1 > 76.9 µM, COCCCNC(=O)CCS(=O)(=O)Cc1ccc(C)cc1 > 76.9 µM
